Experimental data as given in patent US20100222309A1, “SKIN PROPERTY-IMPROVING THERAPEUTIC AGENT COMPRISING A MORPHINAN DERIVATIVE OR ANY OF ITS PHARMACOLOGICALLY PERMISSIBLE ACID ADDITION SALTS AS AN ACTIVE INGREDIENT” (TORAY INDUSTRIES, INC., priority 2007, published 2010).

System: itch patients treated with hemodialysis
Assay: Oral administration of compound 1 soft capsules to itch patients treated with hemodialysis; skin properties and itching observed
Conditions: one of the patients, about 4 to 5 days after start of administration

CN(C(=O)/C=C/c1ccoc1)[C@@H]1CC[C@@]2(O)[C@H]3Cc4ccc(O)c5c4[C@@]2(CCN3CC2CC2)[C@H]1O5.Cl [compound 1]
skin moisture: began to have moist skin | itching (wrists to shoulders and breasts): relieved of the itching
